{"source": "PubChem BioAssay AID686978", "about": "(National Center for Advancing Translational Sciences (NCATS), 2013)", "note": "Values joined by “and” are separate entries in the source; they are usually repeats but may differ in a detail not shown here. Equal values may be shown once. Hit rate of the full screen: of about 420,000 compounds, about 64,000 (15%) were called active. Inconclusive means that the source gave no clear call. Such entries were picked first, then a sample of the others. Calls come from the whole dose curve; as a rule, active = well fitted inhibition curve with a large enough effect; inconclusive = small, poorly fitted or top-dose-only effect; inactive = flat fitted curve, though single readings scatter. Potencies of inconclusive entries are doubtful fits and often do not repeat. % is set by controls: 0 for no effect and ±100 for the full control effect; potency is the fitted concentration of half-maximal effect; tags give direction and shape of the fitted curve.", "data": [{"assay": "qHTS for Inhibitors of human tyrosyl-DNA phosphodiesterase 1 (TDP1): qHTS in cells in absence of CPT; note: nearly all actives have a fitted effect of over 55% in size", "conditions": "DT40 Tdp1-/- hTDP1 cells, no CPT, ATP luminescence, 48 h; activity change, negative = growth inhibition: at 46.2 µM (top of the series) unless noted", "procedure,_shortened": "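Camptothecin absent (DMSO only). Human TDP1-complemented DT40 knockout cells, 400 cells/well, 37 °C for minimum 48 hr; ATP measured via CellTiter-Glo, 30 min dark incubation, luminescence.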", "values": [{"smiles": "O=C(CSc1ccccc1F)NCC1(N2CCCCC2)CCCCC1", "activity change, negative = growth inhibition": "inactive: 22.1%"}, {"smiles": "CCc1nc2ccc(C(=O)N3CCNC(=O)C3)cn2c1N(C)CCC(C)C", "activity change, negative = growth inhibition": "inactive: -25.5%"}, {"smiles": "CC(C)OCCCNC(=O)C1CCC(CNS(=O)(=O)c2ccc(Cl)cc2)CC1", "note": "(configuration not stated)", "activity change, negative = growth inhibition": "inactive: -22.2%"}, {"smiles": "COCCN1CCN(C(=O)c2cnn(-c3nccc(-c4ccco4)n3)c2C2CC2)CC1", "activity change, negative = growth inhibition": "inactive: -3.83%"}, {"smiles": "COc1ccc(C(=O)N2CCC(C(=O)O)CC2)c2ccccc12", "activity change, negative = growth inhibition": "inactive: -13.2%"}, {"smiles": "Cc1cc(C)cc(NC(=O)CN(C)S(=O)(=O)c2ccc3[nH]c4c(c3c2)CCCC4)c1", "Potency": "inconclusive: 23.1 µM [inhibitor, single point]"}, {"smiles": "CCc1ccc(C2CC(c3ccc(C)cc3)Nc3nc(N)nn32)cc1", "note": "(configuration not stated)", "Potency": "inconclusive: 18.4 µM [inhibitor, single point]"}, {"smiles": "O=C(CNC(=O)c1ccc(Br)o1)Nc1cccc(-c2cnc3ccccc3n2)c1", "Potency": "active: 7.31 µM"}, {"smiles": "CNC(=S)Nc1cc(OC)ccc1OC", "activity change, negative = growth inhibition": "inactive: -16.2%"}, {"smiles": "Cc1ccccc1OCC(=O)N/N=C1\\SCC(=O)N1Cc1ccccc1", "Potency": "inconclusive: 20.6 µM [inhibitor, partial curve, poor fit]"}, {"smiles": "COc1ccc(C(=O)Nc2ccc(OCc3cc(=O)n4ccccc4n3)cc2)cc1", "activity change, negative = growth inhibition": "inactive: -24.8%"}, {"smiles": "CN1CCN(c2ccc([N+](=O)[O-])cc2/C=N/NC(=O)c2ccc(F)cc2)CC1", "Potency": "inconclusive: 18.4 µM [inhibitor, single point]"}, {"smiles": "COc1ccc(NS(=O)(=O)c2cc(NC(=O)c3ccco3)ccc2N2CCCC2)cc1", "activity change, negative = growth inhibition": "inactive: -4.9%"}, {"smiles": "Cc1ccc(C)c(S(=O)(=O)N2CCN(C(=O)CNC(=O)c3ccc4ccccc4c3)CC2)c1", "Potency": "active: 16.4 µM"}, {"smiles": "N#C/C(=C\\c1ccc(-c2ccc(F)cc2F)o1)c1nc2ccccc2[nH]1", "Potency": "active: 13 µM"}, {"smiles": "COc1cc(/C=C(/C#N)c2ccc(C)cc2)ccc1Oc1ccc([N+](=O)[O-])cn1", "Potency": "inconclusive: 11.6 µM [inhibitor, partial curve]"}, {"smiles": "COc1ccc(CNC(=O)c2ccc3[nH]c(C)c(C)c3c2)c(OC)c1", "Potency": "inconclusive: 29.1 µM [inhibitor, single point]"}, {"smiles": "N#C/C(=C\\c1c(Oc2ccccc2F)nc2ccccn2c1=O)C(=O)NC1CCS(=O)(=O)C1", "note": "(configuration not stated)", "Potency": "inconclusive: 16.4 µM [inhibitor, single point]"}, {"smiles": "O=C1c2cccc3c2N(CCC3)C(=O)C1(F)c1ccccc1", "note": "(configuration not stated)", "Potency": "inconclusive: 9.2 µM [inhibitor, partial curve, poor fit]"}, {"smiles": "COc1ccc2cc(CN(CC3CCCO3)C(=S)NCc3ccco3)c(=O)[nH]c2c1", "note": "(configuration not stated)", "Potency": "inconclusive: 0.92 µM [inhibitor, full curve]"}, {"smiles": "COc1ccc(OC)c(NC(=O)Cn2c(CCC(=O)O)ccc2-c2ccc(C)cc2)c1", "activity change, negative = growth inhibition": "inactive: -9.81%"}, {"smiles": "CC(=O)c1ccc(Nc2nc(CN)cs2)cc1", "Potency": "inconclusive: 18.4 µM [inhibitor, single point]"}, {"smiles": "COC(=O)c1cc(S(=O)(=O)NCc2ccc(S(N)(=O)=O)cc2)oc1C", "activity change, negative = growth inhibition": "inactive: -12.1%"}, {"smiles": "Cn1cc(/C=C/C(=O)N2CCCC(C(=O)c3ccc(C(F)(F)F)cc3)C2)cn1", "note": "(configuration not stated)", "activity change, negative = growth inhibition": "inactive: -27.1%"}, {"smiles": "CC(=O)Nc1cccc(C(=O)Nc2cccc(S(=O)(=O)NCc3ccco3)c2)c1", "activity change, negative = growth inhibition": "inactive: 5.67%"}, {"smiles": "COc1ccc(CCNC(=O)CSc2nc(=O)n3cc(C)ccc3n2)cc1OC", "activity change, negative = growth inhibition": "inactive: -2.31%"}, {"smiles": "O=C(Cn1cnc2c(nnn2Cc2ccccc2F)c1=O)N1CCN(c2ccccc2)CC1", "activity change, negative = growth inhibition": "inconclusive: -36.2% [inhibitor]"}, {"smiles": "CC(=O)Nc1cccc(NC(=O)/C=C/c2ccc(S(=O)(=O)N3CCOCC3)cc2)c1", "activity change, negative = growth inhibition": "inactive: -25.4%"}, {"smiles": "CCN(CC)CCOC(=O)C(c1ccccc1)C1CCCCC1", "note": "(configuration not stated)", "Potency": "inconclusive: 16.4 µM [inhibitor, single point] and inconclusive: 20.6 µM [inhibitor, single point]"}, {"smiles": "COC(=O)C1=CN(c2ccc(OC)cc2)C=C(C(=O)OC)C1c1cc(OC)c(OC)cc1OC", "Potency": "inconclusive: 18.4 µM [inhibitor, single point]"}, {"smiles": "COc1ccc(NC(=O)c2cc(C3CC3)nc3c2cnn3C(C)C)cc1OC", "Potency": "inconclusive: 25.9 µM [inhibitor, single point]"}, {"smiles": "Cc1ccc(NC(=O)C2CCCN(S(=O)(=O)c3c(C)noc3C)C2)cc1F", "note": "(configuration not stated)", "Potency": "inconclusive: 8.2 µM [inhibitor, partial curve]"}, {"smiles": "COc1ccc(-c2csc(NC(=O)c3ccccc3S(C)(=O)=O)n2)cc1", "Potency": "inconclusive: 18.4 µM [inhibitor, single point]"}, {"smiles": "COc1cc(-c2ccc(N=Nc3ccc4c(S(=O)(=O)O)cc(S(=O)(=O)O)c(N)c4c3O)c(OC)c2)ccc1N=Nc1ccc2c(S(=O)(=O)O)cc(S(=O)(=O)O)c(N)c2c1O", "Potency": "inconclusive: 10.6 µM [inhibitor, partial curve]"}, {"smiles": "CCOc1ccc2[nH]c3nc(SCC(=O)NC4CC4)nnc3c2c1", "Potency": "inconclusive: 5.8 µM [inhibitor, partial curve]"}, {"smiles": "COC(=O)c1cc(Br)c(=O)n(-c2nccs2)c1", "Potency": "inconclusive: 0.231 µM [inhibitor, full curve, poor fit]"}, {"smiles": "Cc1nn(C2CCS(=O)(=O)C2)c(Cl)c1/C=C/C(=O)OCC(=O)Nc1ccccc1[N+](=O)[O-]", "note": "(configuration not stated)", "Potency": "inconclusive: 29.1 µM [inhibitor, single point]"}, {"smiles": "Cc1ccc2cc(C#N)c(SCC(=O)N3CCCC3)nc2c1", "activity change, negative = growth inhibition": "inconclusive: -31.9% [inhibitor]"}, {"smiles": "COc1ccccc1/C=C/C=N/N1CCN(c2ccccn2)CC1", "Potency": "inconclusive: 11.6 µM [inhibitor, partial curve, poor fit]"}, {"smiles": "O=C(N/N=C/c1cc([N+](=O)[O-])ccc1O)c1ccncc1", "Potency": "inconclusive: 29.1 µM [inhibitor, single point]"}, {"smiles": "COc1ccc(-c2onc(C)c2C)cc1S(=O)(=O)NCc1ccc(Br)cc1", "Potency": "active: 13 µM"}, {"smiles": "Cc1ccc(-c2[nH]ncc2C(=O)c2ccc(Br)cc2)c(O)c1", "Potency": "inconclusive: 10.3 µM [inhibitor, single point]"}, {"smiles": "COc1ccc(NC(=O)Nc2ccc3c(c2)C(=O)N([C@H](C)CO)C[C@H](C)[C@@H](CN(C)C(=O)Nc2ccc4c(c2)OCO4)O3)cc1", "activity change, negative = growth inhibition": "inactive: -10%"}, {"smiles": "CCCN(CC(=O)Nc1ccccc1C)C(=O)/C=C/c1cccs1", "activity change, negative = growth inhibition": "inactive: -26.7%"}, {"smiles": "N#CCN1C(=O)NC2(CCCc3sccc32)C1=O", "note": "(configuration not stated)", "activity change, negative = growth inhibition": "inactive: -3.03%"}, {"smiles": "COc1ccc(N(CC(=O)NCc2ccccc2OC)S(=O)(=O)c2ccc(C)cc2)cc1Cl", "Potency": "inconclusive: 29.1 µM [inhibitor, single point]"}, {"smiles": "O=C(COc1ccccc1)NC1CCSC1=O", "note": "(configuration not stated)", "activity change, negative = growth inhibition": "inactive: -2.2%"}, {"smiles": "CCN(CC)CCn1nc2c3c(cccc3c1=O)-c1ccccc1-2", "Potency": "active: 0.0164 µM"}, {"smiles": "Cc1ccc(C(=O)NN(C)c2nc3ccccc3nc2C(F)(F)F)cc1", "Potency": "active: 3.66 µM"}, {"smiles": "CC1(C)CC(=O)c2cc(C(=O)NCCc3ccccc3)c(=O)[nH]c2C1", "activity change, negative = growth inhibition": "inactive: -26.5%"}, {"smiles": "CN(Cc1nc2ccccc2c(=O)[nH]1)C(=O)c1cc(C2CC2)nn1-c1ccccc1", "Potency": "inconclusive: 9.2 µM [inhibitor, partial curve, poor fit]"}, {"smiles": "C=CCN(c1ccccc1Cl)S(=O)(=O)c1cc(C(=O)N2CCCC2)ccc1Cl", "Potency": "inconclusive: 18.4 µM [inhibitor, single point]"}, {"smiles": "O=C(CSc1nc2ccccc2s1)N1N=C(c2cccs2)CC1c1ccc(F)cc1", "note": "(configuration not stated)", "Potency": "inconclusive: 23.1 µM [inhibitor, single point]"}, {"smiles": "COc1ccccc1OCC(=O)O/N=C(\\N)c1ccccn1", "activity change, negative = growth inhibition": "inactive: -2.18%"}, {"smiles": "COn1c(-c2ccc(Cl)cc2)nc2ccc(Cl)cc21", "activity change, negative = growth inhibition": "inactive: -17.8%"}, {"smiles": "CCCOc1ccc(C2c3c(oc4cc(C)c(C)cc4c3=O)C(=O)N2CCCN(C)C)cc1", "note": "(configuration not stated)", "Potency": "inconclusive: 11.6 µM [inhibitor, single point]"}, {"smiles": "NC(=O)c1nsc(C(=O)N(Cc2ccc(F)cc2)C(C(=O)NC2CCCC2)c2ccco2)c1N", "note": "(configuration not stated)", "Potency": "inconclusive: 18.4 µM [inhibitor, single point]"}, {"smiles": "CC(C(=O)O)n1nc(-c2ccccc2)c2ccccc21", "note": "(configuration not stated)", "activity change, negative = growth inhibition": "inactive: 2.88%"}, {"smiles": "CCCC(C(=O)NCC1CCCO1)N(Cc1ccco1)C(=O)CNS(=O)(=O)c1ccc(F)cc1", "note": "(configuration not stated)", "Potency": "inconclusive: 29.1 µM [inhibitor, single point]"}, {"smiles": "O=C(Cn1cc(C(F)(F)F)ccc1=O)NCC1CCCO1", "note": "(configuration not stated)", "activity change, negative = growth inhibition": "inactive: 15.5%"}, {"smiles": "O=C(Nc1cccc(F)c1)c1ccc2c(c1)OCCO2", "Potency": "inconclusive: 14.6 µM [inhibitor, single point]"}, {"smiles": "Cc1noc2ncnc(SCc3ccc(C(F)(F)F)cc3)c12", "Potency": "active: 16.4 µM"}, {"smiles": "O=C(Nc1ccc(F)cc1F)NC1CCN(S(=O)(=O)c2ccc(F)cc2)CC1", "Potency": "inconclusive: 29.1 µM [inhibitor, single point]"}, {"smiles": "O=C(Nc1ccc(S(=O)(=O)N2CCCC2)cc1)c1cccnc1Cl", "activity change, negative = growth inhibition": "inactive: -21.9%"}, {"smiles": "Cc1nn(C)c(C)c1CNC(=O)c1cnn2c1NC(c1ccccc1)CC2C(F)(F)F", "note": "(configuration not stated)", "activity change, negative = growth inhibition": "inactive: -20.7%"}, {"smiles": "COc1ccccc1N1CCN(CC(=O)Nc2ccnn2C2CCCC2)CC1", "Potency": "inconclusive: 23.1 µM [inhibitor, partial curve]"}, {"smiles": "COC(=O)C1CCN(C(=O)CN2C(=O)NC(CC(C)C)C2=O)CC1", "note": "(configuration not stated)", "activity change, negative = growth inhibition": "inactive: -5.91%"}, {"smiles": "N#Cc1ccc(OCc2cccc(S(=O)(=O)N3CCOCC3)c2)cc1", "Potency": "inconclusive: 23.1 µM [inhibitor, single point]"}, {"smiles": "CN(C)c1ccc(C(=O)c2ccc(O)cc2O)cc1", "Potency": "inconclusive: 16.4 µM [inhibitor, partial curve]"}, {"smiles": "c1ccc(CCn2c(C3CC3)nc3ccccc32)cc1", "Potency": "active: 25.9 µM"}, {"smiles": "CCOc1ccc(NS(=O)(=O)c2ccc3c(c2)CCN3C(C)=O)cc1", "Potency": "inconclusive: 3.26 µM [inhibitor, full curve]", "activity change, negative = growth inhibition": "inconclusive: -22.5% [inhibitor]"}]}]}
